According to the supplement of paper PMC4967469:
By IC50 is meant the dose at which the fit gives 50% viability; a limit (>, <) means that the fit lies beyond the doses tested. For AUC the same curve is integrated over the 256-fold range of doses and scaled to a fraction; values near 1 show little effect. Any top dose called inferred comes from the curve model; the source does not state it. For some of these results: Where an entry number is given, a second screen of the drug exists; the two often differ.

Experiments:
Assay in all cases: Viability of human cancer cell lines after 72 h of drug (GDSC screen)
AZD6482 = compound: Cc1cc([C@@H](C)Nc2ccccc2C(=O)O)c2nc(N3CCOCC3)cc(=O)n2c1 [AZD6482]
Method: (§1)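 Human cancer cell lines in 384-well plates, medium with 10% serum, drug for 72 h over a 256-fold dose range (nine 2-fold or five 4-fold steps up to the top dose). Adherent lines were fixed and stained with the nucleic acid dye Syto60, suspension lines read with resazurin; signal relative to control wells, capped at 0 and 100%. One two-parameter sigmoid per drug and line, fitted in a mixed model over all curves with the slope shared within a line.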

BMN-673 = compound: Cn1ncnc1[C@H]1c2n[nH]c(=O)c3cc(F)cc(c23)N[C@@H]1c1ccc(F)cc1 [BMN-673]; conditions: top dose 10 µM; top dose inferred
Method: as §1

MLN4924 = compound: NS(=O)(=O)OC[C@@H]1C[C@@H](n2ccc3c(N[C@H]4CCc5ccccc54)ncnc32)C[C@@H]1O [MLN4924]; conditions: top dose 1 µM; top dose inferred
Method: as §1

XMD11-85h = compound: COc1cc(C(=O)NC2CCN(C)CC2)ccc1Nc1ncc2c(n1)N(C1CCCC1)CCC(=O)N2C(C)C [XMD11-85h]; conditions: top dose 10 µM; top dose inferred
Method: as §1

[1] = top dose 5.12 µM, screen: GDSC drug entry 156
[2] = top dose 5 µM, screen: GDSC drug entry 1066, top dose inferred

Cell Line | AUC (AZD6482; [1]) | IC50 (AZD6482; [1]) | AUC (BMN-673) | IC50 (BMN-673) | AUC (MLN4924) | IC50 (MLN4924) | AUC (XMD11-85h) | IC50 (XMD11-85h) | AUC (AZD6482; [2]) | IC50 (AZD6482; [2])
HCC-78 (lung adenocarcinoma, adherent) | 0.817 | 3.5 µM | 0.561 | 0.943 µM | 0.605 | 0.128 µM | 0.935 | > 10 µM |  | 
HCC-366 (non-small cell lung carcinoma, adherent) |  |  | 0.916 | > 10 µM | 0.955 | > 1 µM | 0.987 | > 10 µM | 0.972 | > 5 µM
HEC-1 (endometrium, adherent) | 0.9 | > 5.12 µM | 0.8 | 4.64 µM | 0.877 | 0.938 µM | 0.976 | > 10 µM | 0.937 | > 5 µM
HGC-27 (stomach, adherent) | 0.739 | 1.35 µM | 0.09 | < 0.0391 µM | 0.623 | 0.129 µM | 0.956 | > 10 µM | 0.954 | > 5 µM
HSC-2 (head and neck, adherent) | 0.775 | 1.87 µM | 0.584 | 1.04 µM | 0.683 | 0.194 µM | 0.938 | > 10 µM | 0.716 | 1.21 µM
HSC-39 (stomach, suspension) | 0.991 | > 5.12 µM | 0.969 | > 10 µM | 0.877 | 0.764 µM | 0.983 | > 10 µM | 0.726 | 1.23 µM
HT-1197 (bladder, adherent) | 0.933 | > 5.12 µM | 0.86 | > 10 µM | 0.956 | > 1 µM | 0.97 | > 10 µM | 0.905 | > 5 µM
HUTU-80 (digestive system, adherent) | 0.955 | > 5.12 µM | 0.299 | 0.191 µM | 0.662 | 0.161 µM | 0.991 | > 10 µM | 0.956 | > 5 µM
Hs939-T (melanoma, adherent) | 0.868 | > 5.12 µM | 0.885 | > 10 µM | 0.902 | > 1 µM | 0.968 | > 10 µM | 0.887 | > 5 µM
Hs940-T (melanoma, adherent) | 0.779 | 2.57 µM | 0.877 | > 10 µM | 0.87 | > 1 µM | 0.981 | > 10 µM | 0.964 | > 5 µM
Hs-445 (Hodgkin lymphoma, suspension) | 0.878 | 4.53 µM | 0.572 | 0.97 µM | 0.813 | 0.492 µM | 0.977 | > 10 µM |  | 
Hs-578-T (breast, adherent) | 0.966 | > 5.12 µM | 0.907 | > 10 µM | 0.865 | 0.979 µM | 0.981 | > 10 µM | 0.834 | 3.56 µM
HuH-7 (liver, adherent) | 0.878 | > 5.12 µM | 0.759 | 3.49 µM | 0.691 | 0.214 µM | 0.968 | > 10 µM | 0.884 | > 5 µM
